Laboratory results from PubChem BioAssay (NCATS).
This list was built around the results that the source calls inconclusive (neither active nor inactive); the mix of calls is not that of the screen. A potency beside an inconclusive call is a rough fit, not a confirmed value. Calls of active or inactive are those of the source. Calls follow the shape of the dose curve; as a rule, active = well fitted activation curve with a large enough effect; inconclusive = small, poorly fitted or top-dose-only effect; inactive = no such curve, though single readings can be large or run the other way.

target: Rap guanine nucleotide exchange factor 3 (Homo sapiens) (UniProt O95398); experiment: Confirmatory qHTS for agonist of cAMP-regulated guanine nucleotide exchange factor 3 (EPAC1) (AID 1645881); settings: EPAC1 Rap1B BODIPY-GDP exchange fluorescence; activation: at 154 µM (top of the series), 100% = cAMP control response; also: nearly all actives have a fitted effect of over 75% in size
UniProt O95398, sequence (O95398 whole entry, looked up): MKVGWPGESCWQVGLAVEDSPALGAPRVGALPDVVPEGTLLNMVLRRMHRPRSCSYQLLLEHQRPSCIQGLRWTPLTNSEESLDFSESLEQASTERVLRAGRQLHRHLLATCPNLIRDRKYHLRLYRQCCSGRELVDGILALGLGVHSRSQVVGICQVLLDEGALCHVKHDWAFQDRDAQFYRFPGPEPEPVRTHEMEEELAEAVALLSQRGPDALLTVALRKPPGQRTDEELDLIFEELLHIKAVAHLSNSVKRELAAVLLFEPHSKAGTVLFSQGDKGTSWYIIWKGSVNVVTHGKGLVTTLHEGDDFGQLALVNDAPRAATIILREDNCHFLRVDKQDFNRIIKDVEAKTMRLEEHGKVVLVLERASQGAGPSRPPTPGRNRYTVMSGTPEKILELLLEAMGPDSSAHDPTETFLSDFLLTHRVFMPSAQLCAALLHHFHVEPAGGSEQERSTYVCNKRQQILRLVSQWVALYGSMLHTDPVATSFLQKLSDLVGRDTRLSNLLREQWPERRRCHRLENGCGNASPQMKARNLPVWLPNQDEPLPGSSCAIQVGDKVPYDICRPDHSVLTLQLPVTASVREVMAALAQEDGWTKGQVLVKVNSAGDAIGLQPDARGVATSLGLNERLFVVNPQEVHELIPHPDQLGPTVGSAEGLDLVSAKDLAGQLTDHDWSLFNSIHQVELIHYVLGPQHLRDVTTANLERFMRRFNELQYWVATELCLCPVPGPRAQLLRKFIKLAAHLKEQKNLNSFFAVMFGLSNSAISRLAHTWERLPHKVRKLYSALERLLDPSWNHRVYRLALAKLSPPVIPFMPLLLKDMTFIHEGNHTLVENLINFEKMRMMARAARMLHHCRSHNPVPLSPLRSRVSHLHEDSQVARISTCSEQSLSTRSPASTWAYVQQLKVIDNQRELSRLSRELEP
Potency is read from the fitted curve at half-maximal effect; tags tell the direction and shape of the fitted curve.

Potency, active:
O=C1c2cccc3c(O)ccc(c23)C(=O)N1Cc1ccccc1 89.1 µM
Cc1ccc(O)c(C(=O)c2cc(C#N)c(=O)n(-c3nccs3)c2)c1 100 µM
CN1/C(=C\C=C2/SC(=S)N(CC(=O)O)C2=O)C(C)(C)c2ccccc21 44.7 µM

Potency, inconclusive:
CN1CCS/C1=C\C=C1/SC(=S)N(CC(=O)O)C1=O 50.1 µM [activator, partial curve]
Cc1ccc2oc(=O)n(Cc3ccc(OC(C)C)cc3)c2c1 70.8 µM [activator, partial curve, poor fit]
COc1ccc(SC[C@H](Cc2ccccc2)N2CC[C@@H](C)CCC2=O)cc1 9.98 µM [activator, partial curve, poor fit]
CCOCCCNc1nc2c(C)cccn2c(=O)c1/C=C1\SC(=S)N(CC(C)C)C1=O 100 µM [activator, partial curve, poor fit]
Fc1ccc(Nc2cncc(-c3ccsc3)c2)cc1Cl 100 µM [activator, partial curve, poor fit]

target: Rap guanine nucleotide exchange factor 4 (Homo sapiens) (UniProt Q8WZA2); experiment: Confirmatory qHTS for agonist of cAMP-regulated guanine nucleotide exchange factor 4 (EPAC2) (AID 1645884); settings: EPAC2 GEF activity, Rap1B-BODIPY-GDP fluorescence; series mostly up to 154 µM;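 also: nucleotide exchange releases bodipy-GDP from Rap1 and this lowers its fluorescence; nearly all actives have a fitted effect of over 65% in size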; as to activation: % is scaled to controls: 0 for no effect and ±100 for the full control effect
UniProt Q8WZA2, sequence (Q8WZA2 whole entry, looked up): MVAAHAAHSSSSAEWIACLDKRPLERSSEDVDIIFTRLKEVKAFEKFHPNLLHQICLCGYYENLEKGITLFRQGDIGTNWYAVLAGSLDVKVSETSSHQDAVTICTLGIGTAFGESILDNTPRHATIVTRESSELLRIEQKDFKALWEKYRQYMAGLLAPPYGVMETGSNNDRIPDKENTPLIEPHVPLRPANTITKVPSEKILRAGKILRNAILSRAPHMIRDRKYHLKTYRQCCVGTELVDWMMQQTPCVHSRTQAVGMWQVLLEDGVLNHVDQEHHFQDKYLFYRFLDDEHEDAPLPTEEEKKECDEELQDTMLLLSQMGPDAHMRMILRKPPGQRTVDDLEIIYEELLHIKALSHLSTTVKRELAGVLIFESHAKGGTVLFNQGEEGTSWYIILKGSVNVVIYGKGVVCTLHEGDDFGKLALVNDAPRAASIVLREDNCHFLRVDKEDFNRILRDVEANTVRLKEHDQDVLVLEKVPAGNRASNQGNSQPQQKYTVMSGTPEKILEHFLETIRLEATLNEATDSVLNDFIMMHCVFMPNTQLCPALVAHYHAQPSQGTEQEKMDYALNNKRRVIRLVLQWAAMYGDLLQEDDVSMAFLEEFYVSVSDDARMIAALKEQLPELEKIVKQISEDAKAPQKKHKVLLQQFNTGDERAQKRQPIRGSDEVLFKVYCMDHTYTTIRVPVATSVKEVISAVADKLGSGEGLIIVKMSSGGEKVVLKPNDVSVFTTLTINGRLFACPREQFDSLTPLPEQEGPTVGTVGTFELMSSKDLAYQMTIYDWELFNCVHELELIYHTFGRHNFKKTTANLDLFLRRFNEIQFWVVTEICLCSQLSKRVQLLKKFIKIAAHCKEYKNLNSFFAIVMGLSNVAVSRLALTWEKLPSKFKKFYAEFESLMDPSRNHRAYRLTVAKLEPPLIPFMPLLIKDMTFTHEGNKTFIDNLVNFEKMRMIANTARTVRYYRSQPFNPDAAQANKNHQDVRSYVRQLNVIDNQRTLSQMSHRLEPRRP

Potency, inconclusive:
O=C(N/N=C\c1c(O)ccc2ccccc12)c1ccc(S(=O)(=O)N2CCCCC2)cc1 3.98 µM [activator, partial curve]
C[n+]1ccc(/C=C/c2c[nH]c3ccccc23)cc1 100 µM [activator, partial curve]
Cc1ccc2c(c1)N(Cc1cccc(F)c1)C(=O)C(C)O2 (stereo not drawn) 50.1 µM [activator, partial curve, poor fit]
COc1cccc(Nc2nnc(-c3cc4ccc(O)cc4oc3=O)s2)c1 0.224 µM [activator, full curve, poor fit]
COc1ccc(Nc2cccc3ccccc23)cc1 100 µM [activator, partial curve]
CN1CC=C2C(C#N)=C(N)C(C#N)(C#N)C(c3ccsc3)C2C1 (stereo not drawn) 28.2 µM [activator, partial curve]
N#CC(C#N)=C1C=C2C=C(N3CCOCC3)CCC2CC1 (stereo not drawn) 22.4 µM [activator, partial curve, poor fit]
COc1ccc2c(c1)CCC1C2=NN(/C(C)=C/C(C)=O)C1c1cccc(F)c1 (stereo not drawn) 100 µM [activator, partial curve]
COc1ccccc1C(=O)Oc1ccc2c(c1)O/C(=C\c1ccncc1)C2=O 112 µM [activator, single point]
COc1cc2c3nnc(-c4ccc(F)cc4)c-3cn(Cc3cccc(C)c3)c2cc1OC 112 µM [activator, single point]
Cc1ccc(-c2nc(S(=O)(=O)c3ccc(C)cc3)c(N3CCOCC3)o2)cc1 100 µM [activator, partial curve, poor fit]
COc1ccc2c(c1)C(=O)CCC2c1ccccc1 (stereo not drawn) 100 µM [activator, partial curve]
Cc1cc2nc3c(=O)n(C)c(=O)n(C)c3nc2cc1N=CN(C)C 1.78 µM [activator, full curve, poor fit]
CCCN1CC=C2C(C#N)=C(N)C(C#N)(C#N)C(c3cccc(OC)c3OC)C2C1 (stereo not drawn) 100 µM [activator, partial curve]
Cc1ccc2oc(=O)n(Cc3ccc(OC(C)C)cc3)c2c1 89.1 µM [activator, partial curve, poor fit]
COc1ccc(SC[C@H](Cc2ccccc2)N2CC[C@@H](C)CCC2=O)cc1 56.1 µM [activator, partial curve, poor fit]
CCOCCCNc1nc2c(C)cccn2c(=O)c1/C=C1\SC(=S)N(CC(C)C)C1=O 112 µM [activator, single point]
Cc1ccc(O)c(C(=O)c2cc(C#N)c(=O)n(-c3nccs3)c2)c1 22.4 µM [activator, partial curve]
Fc1ccc(Nc2cncc(-c3ccsc3)c2)cc1Cl 100 µM [activator, partial curve, poor fit]

Potency, active:
CC1CCN(c2ccc3c(c2)S(=O)(=O)c2cccc(C(=O)NC4CCCCC4)c2C3=O)CC1 100 µM
COCCn1c2nc(=O)n(-c3ccccc3)c(=O)c-2nc2ccccc21 100 µM
O=C1NC(=O)C2(N1)C(=O)c1cccc3cccc2c13 (stereo not drawn) 100 µM
CN1/C(=C\C=C(/C#N)C(=O)Nc2ccc(Cl)cc2)C(C)(C)c2ccccc21 100 µM
CCN1C/C(=C/c2ccc(N3CCOCC3)cc2)C(=O)/C(=C/c2ccc(N3CCOCC3)cc2)C1 100 µM
CCN(CC)c1ccc2oc(=O)c(C)nc2c1 100 µM
O=C1c2cccc3c(O)ccc(c23)C(=O)N1c1ccc(Cl)cc1 112 µM
CCCCN(C)C1=CC2=CC(=C(C#N)C#N)CCC2CC1 (stereo not drawn) 126 µM
N#C/C(=C/c1ccc(N2CCCCC2)o1)C(=O)Nc1ccc(Cl)cc1 100 µM
CC(=NNC(=O)c1ccncc1)c1ccc2ccccc2c1O 112 µM
CN(C)c1ccc(C(=O)/C=C/c2ccc(Br)cc2)cc1 112 µM
Cc1ccc2oc(=O)c(/C=C(\O)c3cccs3)nc2c1 89.1 µM
CCOC(=O)c1cc2n(c1N)-c1ccccc1C2=O 100 µM
CCN(CC)c1ccc2cc(-c3nnc(-c4cccc(Cl)c4)o3)c(=O)oc2c1 35.5 µM
CCSc1nnc(-c2sc3nnc(-c4ccccc4)c(-c4ccccc4)c3c2N)o1 112 µM
Cc1ccc(/C=C/C(=O)c2ccc(N3CCOCC3)cc2)s1 100 µM
CN1CCS/C1=C\C=C1/SC(=S)N(CC(=O)O)C1=O 79.4 µM
O=C1c2cccc3c(O)ccc(c23)C(=O)N1Cc1ccccc1 100 µM
CN1/C(=C\C=C2/SC(=S)N(CC(=O)O)C2=O)C(C)(C)c2ccccc21 7.94 µM

activation, inactive:
O=C(NCc1ccc(F)cc1)c1cccc2c1C(=O)c1ccc(N3CCC(Cc4ccccc4)CC3)cc1S2(=O)=O 30% [at 17.1 µM, percent relative to cAMP agonist control]
Cc1cccc(C(C)C)c1-n1nnnc1-c1ccccc1 6.22% [at 17.1 µM, percent relative to cAMP agonist control]
